Data from PubChem BioAssay AID624296 (National Center for Advancing Translational Sciences (NCATS), 2012).
In all, about 350,000 compounds went through this assay and about 9,900 (2.8%) were called active. Inconclusive results, whose numbers are uncertain, are shown with a selection of clear calls. Calls come from the whole dose curve; as a rule, active = well fitted activation curve with a large enough effect; inconclusive = small, poorly fitted or top-dose-only effect; inactive = no such curve, though single readings can be large or run the other way. Potencies of inconclusive entries are left out as doubtful fits.
Potency is the fitted concentration of half-maximal effect; tags give direction and shape of the fitted curve.

Assay: A quantitative high throughput screen for small molecules that induce DNA re-replication in MCF 10a normal breast cells. For activity, positive = re-replication: % of control where 0% means no effect. Note: nearly all actives have a fitted effect of over 50% in size.
Details: MCF 10A DNA re-replication, Hoechst nuclear intensity, 48 h; activity, positive = re-replication: at 46.1 µM (top of the series)
For `CCOc1cc(N2CCOCC2)c(OCC)cc1NC(=O)c1ccc(NC(C)=O)cc1`, the “activity, positive = re-replication” value was inactive: 3.09%.
In the case of `CC(=O)c1ccc(NC(=O)CN2CCN(c3ncccn3)CC2)cc1`, the “activity, positive = re-replication” value is reported as inactive: -6.52%.
With `COc1ccc(NC(=O)C(=S)N2CCCC2)cc1` the “activity, positive = re-replication” value was inactive: -5.8%.
For `O=c1c2cn[nH]c2nc(SCc2c(F)cccc2F)n1-c1ccc(Cl)cc1`, the Potency was inconclusive [activator, single point].
With `O=C(CSc1ccc(C(F)(F)F)cc1[N+](=O)[O-])Nc1ccc2ccccc2c1` the Potency was inconclusive [activator, single point].
In the case of `O=c1c2cc(N3CCOCC3)ccc2[nH]c(=S)n1Cc1cccc(Cl)c1`, the Potency is reported as inconclusive [activator, single point].
For `COCCCNC(=S)N1CCCN(c2nc3cc(C)ccc3cc2C#N)CC1`, the Potency was inconclusive [activator, single point].
In the case of `O=C(c1ccco1)N1CCN(C(=O)C(Sc2ccccc2)c2ccccc2)CC1` (stereo not given), the Potency is reported as inconclusive [activator, single point].
In the case of `COc1ccc(C(O)c2nc3ccccc3n2C(C)C)cc1` (stereo not given), the Potency is reported as inconclusive [activator, single point].
In the case of `CCOc1ccccc1NC(=O)c1cc(Cl)ccc1NC(=O)c1ccco1`, the Potency is reported as inconclusive [activator, full curve, poor fit].
In the case of `NC(=O)CSc1nc2ccccc2c(=O)n1-c1ccccc1`, the Potency is reported as inconclusive [activator, single point].
For `CC(=O)SC(C[N+](=O)[O-])c1cn(C(C)=O)c2ccccc12` (stereo not given), the Potency was inconclusive [activator, single point].
For `COC1C(OC(=O)/C=C/C=C/C=C/C=C/C(=O)O)CCC2(CO2)C1C1(C)OC1CC=C(C)C` (stereo not given), the Potency was inconclusive [activator, partial curve].
With `CCOc1ccccc1Nc1cc(C)nc2ccc(C)cc12` the Potency was inconclusive [activator, full curve].
In the case of `Cc1ccc(C(=O)NCC(=O)NC23CC4CC(CC(C4)C2)C3)cc1`, the Potency is reported as inconclusive [activator, full curve, poor fit].
For `O=C(Nc1nc2ccc(SC(F)F)cc2s1)c1ccc(NS(=O)(=O)c2ccc(F)c(F)c2)cc1`, the Potency was active: 18.4 µM.
With `Cc1nn(C)c(C)c1NC(=O)COc1ccc(F)cc1Br` the “activity, positive = re-replication” value was inactive: 16.3%.
With `Cc1ccc(Nc2oc(C)nc2C#N)cc1` the Potency was inconclusive [activator, full curve].
In the case of `CCn1c(-c2ccccc2Cl)nn(CC(=O)NCCc2ccccc2)c1=S`, the Potency is reported as inconclusive [activator, single point].
In the case of `CN1\C(=C/C=C/C=C/C=[N+](C)C)C(C)(C)c2ccccc21`, the Potency is reported as inconclusive [activator, single point].
In the case of `O=C(C1=C[C@@H](c2coc3ccccc3c2=O)C[C@@H](OCCCCO)O1)N1CCN(Cc2ccc3c(c2)OCO3)CC1`, the Potency is reported as inconclusive [activator, partial curve, poor fit].
With `O=C(Cc1ccccc1)Nc1cccc(NC(=O)c2cccs2)c1` the Potency was inconclusive [activator, single point].
In the case of `Oc1c(Cl)cc(Cl)cc1C(C#Cc1ccccc1)N1CCOCC1` (stereo not given), the Potency is reported as inconclusive [activator, single point].
In the case of `Cc1ccc2oc(=O)n(Cc3ccccc3OC(C)C)c2c1`, the Potency is reported as inconclusive [activator, partial curve].
For `O=C(Nc1ccc2c(c1)CCC2)c1ccc(F)c(S(=O)(=O)N2CCOCC2)c1`, the “activity, positive = re-replication” value was inactive: 11%.
With `O=C1CC(c2ccc(F)cc2)Sc2ccccc2N1` (stereo not given) the Potency was inconclusive [activator, partial curve, poor fit].
For `O=C(NNc1nc(Nc2ccccc2)nc(N2CCOCC2)n1)Nc1ccc(Cl)cc1`, the Potency was inconclusive [activator, single point].
In the case of `O=C(/C=C/C=C/c1ccccc1)CC1(O)C(=O)N(CCc2ccccc2)c2ccccc21` (stereo not given), the Potency is reported as inconclusive [activator, single point].
With `COc1ccc(OCc2cc(C(=O)NCCN3CCCc4ccccc43)no2)c(Cl)c1` the Potency was inconclusive [activator, single point].
With `Cc1ccc2nc3c(cc(C(=O)NCC4CCCO4)c(=N)n3CCCOC(C)C)c(=O)n2c1` (stereo not given) the Potency was inconclusive [activator, full curve, poor fit].
With `CCN(CC)c1ccc(/C=C/C(=O)C2C(=O)C=C(C)OC2=O)cc1` (stereo not given) the Potency was active: 18.4 µM.
With `O=C(c1cccc(Cl)c1)N1CCC(N2CCC(C(=O)N3CCCC3)CC2)CC1` the “activity, positive = re-replication” value was inactive: 5.42%.
In the case of `COc1ccc(/C=C/C(=O)c2sc(-c3ccccc3)nc2C)cc1`, the Potency is reported as inconclusive [activator, single point].
In the case of `Cc1cc(C)c2c(N)c3ccccc3nc2n1`, the Potency is reported as inconclusive [activator, partial curve, poor fit].
With `CCN(C(=O)COc1nc(C)cc(C)c1C#N)c1ccccc1` the Potency was inconclusive [activator, single point].
With `OCC1(Cc2cccc(C(F)(F)F)c2)CCN(Cc2cc(F)cc(F)c2)CC1` the Potency was active: 23.1 µM.
For `O=S(=O)(Nc1ccccc1O)c1ccc(-c2ccccc2)cc1`, the Potency was inconclusive [activator, partial curve, poor fit].
With `CCOC(=O)C1=C(CSc2nc(-c3ccccc3)ccc2C#N)OC(N)=C(C#N)C1c1ccccc1` (stereo not given) the Potency was inconclusive [activator, single point].
With `COC(=O)c1c(-n2c(C)cc(C=O)c2C)sc2c1CCCC2` the “activity, positive = re-replication” value was inactive: 3.17%.
With `Cc1ccc(/C=C2\SC(=S)N(CCC(=O)Nc3cccnc3)C2=O)cc1` the “activity, positive = re-replication” value was inactive: -1.82%.
With `O=C(COC(=O)c1cn(-c2ccccc2)nc1-c1ccc(F)cc1)Nc1ncc(Cl)cc1Cl` the Potency was inconclusive [activator, single point].
In the case of `O=C(NCC1OCCc2ccccc21)c1cc(COc2c(F)cccc2F)on1` (stereo not given), the “activity, positive = re-replication” value is reported as inactive: 3.08%.
For `Cc1ccc2c(c1)[nH]c1c(=O)n(CCN3CCNCC3)cnc12`, the Potency was inconclusive [activator, partial curve, poor fit].
In the case of `Cc1ccc(N(CC(=O)NC2CCCCC2)S(=O)(=O)c2c(C)noc2C)cc1`, the Potency is reported as inconclusive [activator, single point].
For `COc1ccc(/C=N/OCC(=O)N=Nc2c(O)[nH]c3ccc(Br)cc23)cc1OC`, the Potency was inconclusive [activator, partial curve, poor fit].
With `O=C(NNC1CC(=O)N(c2ccc(Br)cc2)C1=O)c1ccco1` (stereo not given) the Potency was inconclusive [activator, single point].
In the case of `CC(=O)NC(c1cccc([N+](=O)[O-])c1)c1c(OC(C)=O)ccc2ccccc12` (stereo not given), the Potency is reported as inconclusive [activator, partial curve, poor fit].
In the case of `CC/C(=N\NC(=O)C1CCCC1)c1ccc(Br)cc1`, the “activity, positive = re-replication” value is reported as inactive: 4.71%.
For `O=C(COc1ccc(Br)cc1)NCCN1CCCC1`, the Potency was inconclusive [activator, partial curve, poor fit].
For `COc1ccc2[nH]c3c(c2c1)CCN1C(=O)C(CC(=O)NCCCn2ccnc2)C[C@H](C(=O)N2CCCCC2)[C@@]31CCc1ccccc1` (stereo not given in full), the Potency was inconclusive [activator, full curve, poor fit].
For `COc1ccccc1-c1sc2cc3c(cc2c1C#Cc1ccccn1)OCO3`, the Potency was inconclusive [activator, single point].
In the case of `CC1=NN(c2ccc(C(F)(F)F)cn2)C(=O)C1`, the Potency is reported as inconclusive [activator, single point].
In the case of `Cc1ccc(C)c(N2CCN(C(=O)CCCOc3cc(=O)n(C)c4ccccc34)CC2)c1`, the Potency is reported as inconclusive [activator, single point].
For `C=CCNCCOCCOc1ccc(Cl)cc1C(C)(C)C`, the Potency was inconclusive [activator, partial curve, poor fit].
For `O=C(Nc1ccc(N2CCCC2)cc1)C(Cl)c1ccccc1` (stereo not given), the Potency was inconclusive [activator, single point].
With `COc1cc(OC)c(NC(=O)c2ccc(F)cc2)cc1Cl` the Potency was inconclusive [activator, single point].
In the case of `O=C(NCc1ccc(OC(F)(F)F)cc1)C1CC(c2cccc(F)c2)=NO1` (stereo not given), the Potency is reported as inconclusive [activator, full curve, poor fit].
For `O=C(O)c1cccc(S(=O)(=O)NCC2CCCO2)c1` (stereo not given), the Potency was inconclusive [activator, partial curve, poor fit].
In the case of `CC(C)[C@H](NC(=O)c1ccccc1)C(=O)Nc1cccc(S(=O)(=O)N2CCOCC2)c1`, the Potency is reported as inconclusive [activator, single point].
With `COc1cccc2c1OCC(C(=O)NCc1ccc(Cl)cc1Cl)=C2` the Potency was inconclusive [activator, partial curve, poor fit].
For `Nc1nc(-c2ccc(Oc3ccccc3)cc2)cs1`, the “activity, positive = re-replication” value was inactive: 18.5%.
With `Cc1ccc(C(=O)C2CCN(CC(=O)Nc3ccccc3C)CC2)cc1` the Potency was inconclusive [activator, partial curve].
In the case of `COc1ccc(N(C(=O)c2cccnc2)S(=O)(=O)c2ccc(F)cc2)cc1`, the “activity, positive = re-replication” value is reported as inactive: -6.2%.
In the case of `O=C(COc1ccc(F)cc1)Nc1ccc2c(c1)OCCO2`, the “activity, positive = re-replication” value is reported as inactive: -10.7%.
In the case of `O=C1N/C(=N\N=C\c2ccco2)SC1Cc1ccccc1[N+](=O)[O-]` (stereo not given), the Potency is reported as inconclusive [activator, partial curve].
